Variants at the floor of the assay are shown more often than the library holds them.
B1: tRNA (parent)
chain: CUCUCGGUAGCCAAGUUGGUUUAAGGCGCAAGACUUUAAUUUAUCACUACGAAAUCUUGAGAUCGGGCGUUCGACUCGCCCCCGGGAGAUUUUUUCCUCGAGCAA

Variants of: B1
Assay: nonsense suppression (GFP-seq) (ratio to wild type); higher = more function; SUP4oc tRNA, yeast GFP reporter sort-seq
In short: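 Raffinose/galactose medium with 80 mg/L adenine was used to grow yeast carrying genome-integrated tRNA variants (~3% random-mutation library), RFP, and a galactose-driven GFP ochre reporter. Cells went into GFP/RFP bins, which were Illumina-sequenced, and variants with ≥100 reads and ≥30 cells were scored. Nonsense suppression (GFPSEQ) is the per-bin median GFP/RFP weighted by estimated cell share and expressed relative to the unmutated parent tRNA.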

Variant	nonsense suppression
CUCUCGGUAGCCAAGUUGGUUUGAGCCGCAAGACUUUAAUUUAUCACUACGAAAUCUUGAGAUCGGACGUUCGACUCGCCCCCGGGAGAUUUUUUCCUCGAGCAA [A23G G26C G67A]	≤ 0.026
CUCUCGGUAGCCAAGUUGGUUUGAGGCGCAAGACAUUAAUUUAUCACUACGAAAUCUUGAGAUCGGGCGUUCGACUCGCCCCCGGGAGAUUUUUUCCUCGAGCAA [A23G U35A]	≤ 0.026
CUCUCGGUAGCCAAGUUGGUUUUGGGCGCAAGACUUUAAUUUAUCACUACGAAAUCUUGAGAUGGGGCGUUCGACUCGCCCCCGGGAGAUUUUUUCCUCGAGCAA [A23U A24G C64G]	≤ 0.026
CUCUCGGUAGCCAAGUUGGUUUUAGGCGCAAGACUUUAAUUUAUCACUACGAAAUCUUGAGUUCGGGCGUGCGACUCGCCCCCGGGAGAUUUUUUCCUCGAGCAA [A23U A62U U71G]	≤ 0.026
CUCUCGGUAGCCAAGUUGGUUUGAGGCGCAAGACUUUAAUUUAUCACUACGAAAUCUUCAGAUGGGGCGUUCGACUUACCCCCGGGAGAUUUUUUCCUCGAGCAA [A23G G59C C64G C77U G78A]	≤ 0.026
CUCUCGGUAGCCAAGUUGGUUUGAGGCGCAAGACUUUAAUUUAUCACUACGAAAUCUUGAGAUCGGGCGUUCGACUCACCCCCGGGAGAUUUUUUCCUCGAGCAA [A23G G78A]	0.0355
CUCUCGGUAGCCAAGUUGGUUUGAGGCGCAAGACUUUAAUUUAUCACUACGAAAUCUUGAGAUCCUGCGUUCGACUCGCCCCCGGGAGAUUUUUUCCUCGAGCAA [A23G G65C G66U]	≤ 0.026
CUCUCGGUAGCCAAGUUGGUUUUAGGCGCCAGACUUUAAUUUAUCACUACGAAAUCUUGAAAUCGGGCGUUCGACGCGCCCCCGUGAGAUUUUUUCCUCGAGCAA [A23U A30C G61A U76G G85U]	≤ 0.026
CUCUCGGUAGCCAAGUUGGUUUGAGGCGCAAGACUUUAAUUUAUCACUACGAAAUCGUGAGAUCGGGCGUUCAACUCACCCCCGGGAGAUUUUUUCCUCGAGCAA [A23G U57G G73A G78A]	≤ 0.026
CUCUCGGUAGCCAAGUUGGUUUGAGCCGCAAGACUUUAAUUUAUCACUACGAAAUCUUGAGAUCGGGCGUUCGACGCGUCCCCUGGAGAUUUUUUCCUCGAGCAA [A23G G26C U76G C79U G84U]	≤ 0.026
CUCUCGGUAGCCAAGUUGGUUUGAGGCGCAAGACUUUAAUUUAUCACUACGAAAUCUUGAGAUCGGGCGUUCGACUCGCCCCCCGGAGAUUUUUUCCUCGAGCAA [A23G G84C]	≤ 0.026
CUCUCGGUAGCCAAGUUGGUUUGAGGCGCAAGACUUUAAUUUAUCACUACGAAAUCAGGAUAUCGGGCGUUCGACUCGCCCCCGGGAGAUUUUUUCCUCGAGCAA [A23G U57A U58G G61U]	≤ 0.026
CUCUCGGUAGCCAAGUUGGUUUGAGGCGCAAGACUUUAAUUUAUCACUACGAAAUCUUGAGAGCGGGCGUUCGACUCGCCCCCGGGAGAUUUUUUCCUCGAGCAA [A23G U63G]	≤ 0.026
CUCUCGGUAGCCAAGUUGGUUUUAGGCGCAAGACUUUAAUUUAUCACUACGAAAUCUUGCGGUCGGGCGUUCGACUCGCCCCCGGGAGAUUUUUUCCUCGAGCAA [A23U A60C A62G]	≤ 0.026
CUCUCGGUAGCCAAGUUGGUUUGAGGCGCAAGACUUUAAUUUAUCACUACGAAAUCUUUAGAUCGGGCGUUCUACUCGCCCCCGGGAGAUUUUUUCCUCGAGCAA [A23G G59U G73U]	≤ 0.026
CUCUCGGUAGCCAAGUUGGUUUUAGGCGCAAGGCUUUAAUUUAUCACUACGAAAUUUUGAGAUCGGGCGUUCGACUCGCCCCCCGGAGAUUUUUUCCUCGAGCAA [A23U A33G C56U G84C]	≤ 0.026
CUCUCGGUAGCCAAGUUGGUUUUAGGCGCAUGACUUUAAUUUAUCACUACGAAAUCUUGAGCUUGGGCGUUCGACUCGCCCCCGGAAGAUUUUUUCCUCGAGCAA [A23U A31U A62C C64U G86A]	≤ 0.026
CUCUCGGUAGCCAAGUUGGUUUGAGGCGCAAGACUUUAAUUUAUCACUACGAAAUCUUGAGAUCAGGCGUUCGACUCGCCCCCGGGAGAUUUUUUCCUCGAGCAA [A23G G65A]	≤ 0.026
CUCUCGGUAGCCAAGUUGGUUUUAGGCGCAAGACUUUAAUUUAUCACUACGAAAUCUUGAGAUCGGGCGUUCGACUCGCCCCCGGGAGAUUUUUUCCUCGAGCAA [A23U]	≤ 0.026
CUCUCGGUAGCCAAGUUGGUUUUAGGCGCAAGACUUUAAUUUAUCACUACGAAAUCUUGCGGUCGGGCGUUCGACCCGCCCCCGGGAGAUUUUUUCCUCGAGCAA [A23U A60C A62G U76C]	≤ 0.026
CUCUCGGUAGCCAAGUUGGUUUUAGGCGCAAGGCUUUAAUUUAUCACUACGAAAUCUUGAGAUCGGGCGUUCGACUCGCCCCCGGGAGAUUUUUUCCUCGAGCAA [A23U A33G]	≤ 0.026
CUCUCGGUAGCCAAGUUGGUUUUCGGCGCAAGACUUUAAUUUAUCACUACGAAAUCUUGAGAUCGGGCGCUCGACUCGCCCCCGGGAGAUUUUUUCCUCGAGCAA [A23U A24C U70C]	≤ 0.026
CUCUCGGUAGCCAAGUUGGUUUGAGGCGCAAGACUUUAAUUUAUCACUACGAAAUCUUGAGAUCGGGCGUUUGACUCGCCCCCGGGAGAUUUUUUCCUCGAGCAA [A23G C72U]	≤ 0.026
CUCUCGGUAGCCAAGUUGGUUUUAGGCGCAAGGCUUUAAUUUAUCACUACGAAAUCUUGAGAUCGGACGUUCGACUCGCCUCCGCGAGAUUUUUUCCUCGAGCAA [A23U A33G G67A C81U G85C]	≤ 0.026
CUCUCGGUAGCCAAGUUGGUUUUAGGCGCAGGACUUUAAUUUAUCACUACGAAAUCUUGAGAUCGGUCGUUCGACUCGCCCCCUGGAGAUUUUUUCCUCGAGCAA [A23U A31G G67U G84U]	≤ 0.026
CUCUCGGUAGCCAAGUUGGUUUGAGGCGCAAGACUUUAAUUUAUCACUACGAAAUCUUGAUAUCGGGCGUUCUACUCGCCCCCGGGAGAUUUUUUCCUCGAGCAA [A23G G61U G73U]	≤ 0.026
CUCUCGGUAGCCAAGUUGGUUUGAGGCGCAAGACUUUAAUUUAUCACUACGAAAGCUUGAGAUCGGGCGUUCGACUCGCCCCCGGGAGAUUUUUUCCUCGAGCAA [A23G U55G]	≤ 0.026

Variant	nonsense suppression
CUCUCGGUAGCCAAGUUGGUUUUAGGCGCAGGGCUUUAAUUUAUCACUACGAAAUCUUGAGAUCGGCCGUUCGACUCGCCCCCGGGAGAUUUUUUCCUCGAGCAA [A23U A31G A33G G67C]	≤ 0.026
CUCUCGGUAGCCAAGUUGGUUUGAGGCACAAGACUUUAAUUUAUCACUACGAAAUCUUGAGAUCAGGCGUUCGACUCGCCCCCGGGAGAUUUUUUCCUCGAGCAA [A23G G28A G65A]	≤ 0.026
CUCUCGGUAGCCAAGUUGGUUUUAGGCGCAAGACUUUAAUUUAUCACUACGAAAUCUUGCGGUCGGGCGUUCGACCCGCCCCCUGGAGAUUUUUUCCUCGAGCAA [A23U A60C A62G U76C G84U]	≤ 0.026
CUCUCGGUAGCCAAGUUGGUUUGAAGCGCAAGACUUUAAUUUAUCACUACGAAAUCUUGAGAUCGGGCGUUCGACUCGCCCCCGGGACAUUUUUUCCUCGAGCAA [A23G G25A G88C]	≤ 0.026
CUCUCGGUAGCCAAGUUGGUUUGAGGCGCAAGACUUUAAUUUAUCACUACGAAAUCUUUCGAUCGGGCGUUGGACUCGCCCCCGGGAGAUUUUUUCCUCGAGCAA [A23G G59U A60C C72G]	≤ 0.026
CUCUCGGUAGCCAAGUUGGUUUGAGGCGCAAGACUUUAAUUUAUCACUACGAAAUCUUCAGAUCGGGCGUUCGACUCGCCCCCGGGAGAUUUUUUCCUCGAGCAA [A23G G59C]	≤ 0.026
CUCUCGGUAGCCAAGUUGGUUUGAGGCGCAACACUUUAAUUUAUCACUACGAAAUCUUGAGAUCGGGCGUUCGACUCGCCGCCGGGAGAUUUUUUCCUCGAGCAA [A23G G32C C81G]	≤ 0.026
CUCUCGGUAGCCAAGUUGGUUUGAGGCGCAAGACUUUAAUUUAUCACUACGAAAUCUUGAGAUCGGGCGCUCGACUCGCCCCCGGGAGAUUUUUUCCUCGAGCAA [A23G U70C]	≤ 0.026
CUCUCGGUAGCCAAGUUGGUUUGAGGCGCAAGACUUUAAUUUAUCACUACGAAACCUUGAGAUCGCGCGUUCGACUCGCCCCCGGGAGAUUUUUUCCUCGAGCAA [A23G U55C G66C]	≤ 0.026
CUCUCGGUAGCCAAGUUGGUUUGAGGCGCAAGACUUUAAUUUAUCACUACGAAAUCUUGAGAUCGGACGUUCGACUCGCACCCGGGAGAUUUUUUCCUCGAGCAA [A23G G67A C80A]	≤ 0.026
CUCUCGGUAGCCAAGUUGGUUUGAGGCGCAAGACUUUAAUUUAUCACUACGAAAUCUAGAGAUCGGGCGUUCGACUCGCCCCCGGGAGAUUUUUUCCUCGAGCAA [A23G U58A]	≤ 0.026
CUCUCGGUAGCCAAGUUGGUUUUCGGCGCGAGGCUUUAAUUUAUCACUACGAAAUCUUGAGAUCGGGCGUUCGACUCGCUCCCGGGAGAUUUUUUCCUCGAGCAA [A23U A24C A30G A33G C80U]	≤ 0.026
CUCUCGGUAGCCAAGUUGGUUUUAGGCGCUAGUCUUUAAUUUAUCACUACGAAAUCUUAAGAUCGGGCGUUCAACUCGCCCCCGGGAGAUUUUUUCCUCGAGCAA [A23U A30U A33U G59A G73A]	≤ 0.026
CUCUCGGUAGCCAAGUUGGUUUGAGGCGCAAGACUUUAAUUUAUCACUACGAAAUCUUAAGAUCGGGCGUUCGACUCGCCCCAGGGAUAUUUUUUCCUCGAGCAA [A23G G59A C83A G88U]	≤ 0.026
CUCUCGGUAGCCAAGUUGGUUUGAUGCGCAAGACUUUAAUUUAUCACUACGAAAUCUUGAGAUCGGGCGUUCGACUCGCCCCCGGGAGAUUUUUUCCUCGAGCAA [A23G G25U]	≤ 0.026
CUCUCGGUAGCCAAGUUGGUUUGAAGCGCAAGACUUUAAUUUAUCACUACGAAAUCUUGAGAUCGGGCGUUCGACUCGCCCCCGGGAGAUUUUUUCCUCGAGCAA [A23G G25A]	≤ 0.026
CUCUCGGUAGCCAAGUUGGUUUGAAGCGCUAGACUUUAAUUUAUCACUACGAAAUCUUGAGAUCGUGCGUUCGUCUCGCCCCCGGGAGAUUUUUUCCUCGAGCAA [A23G G25A A30U G66U A74U]	≤ 0.026
CUCUCGGUAGCCAAGUUGGUUUGAGCCGCAAGACUUUAAUUUAUCACUACGAAAUCUUGAGAUCGGGCGUUCGACUCGCCCCCGGGAGAUUUUUUCCUCGAGCAA [A23G G26C]	≤ 0.026
CUCUCGGUAGCCAAGUUGGUUUGAGGCGCAAGACAUUAAUUUAUCACUACGAAAUCCUGAGAUCGGGCGUUCGACUCGCCCCCGGGAGAUUUUUUCCUCGAGCAA [A23G U35A U57C]	≤ 0.026
CUCUCGGUAGCCAAGUUGGUUUGAGGCUCAAGACUUUAAUUUAUCACUACGAAAUCUUGAGAUCGGGCGUUCGACUCGCCCCCGGGAGAUUUUUUCCUCGAGCAA [A23G G28U]	≤ 0.026
CUCUCGGUAGCCAAGUUGGUUUUAGGCGCAAGACUUUAAUUUAUCACUACGAAAUCUUGAGAUCGGGCGUUCGACUCGCCCCCGGGAGCUUUUUUCCUCGAGCAA [A23U A89C]	≤ 0.026
CUCUCGGUAGCCAAGUUGGUUUGAGGCGCAAUACUUUAAUUUAUCACUACGAAAUCUUGAGAUCGGGCGUUCGACUCGCCCCCGGGAGAUUUUUUCCUCGAGCAA [A23G G32U]	≤ 0.026
CUCUCGGUAGCCAAGUUGGUUUUAGGCGCAAGACUUUAAUUUAUCACUACGAAAUCUUGAGCUCGGGCGUUCGACUCGCCCCCGGGAGAUUUUUUCCUCGAGCAA [A23U A62C]	≤ 0.026
CUCUCGGUAGCCAAGUUGGUUUGAGGCGCAAGACUUUAAUUUAUCACUACGAAAUCUUGAGAUCGGGCCUUCGACUCGCCCCCGGGAGAUUUUUUCCUCGAGCAA [A23G G69C]	≤ 0.026
CUCUCGGUAGCCAAGUUGGUUUGAGGCGCAAGACUUUAAUUUAUCACUACGAAAUCUUGAGAUCGGGCGUACGACUCGCCCCCGGGAGAUUUUUUCCUCGAGCAA [A23G U71A]	≤ 0.026
CUCUCGGUAGCCAAGUUGGUUUGAGGCGCAAGACUUUAAUUUAUCACUACGAAAACUUGAGAUCGGGCGUGCGACUCGCCCCCGGGAGAUUUUUUCCUCGAGCAA [A23G U55A U71G]	≤ 0.026
CUCUCGGUAGCCAAGUUGGUUUGAGGCGCAAGACUUUAAUUUAUCACUACGAAAUCCUGAAAUCGGGCGUUGGACUCGCCCCCGGGAGAUUUUUUCCUCGAGCAA [A23G U57C G61A C72G]	≤ 0.026
